Experimental data as given in PubChem BioAssay AID504466 (National Center for Advancing Translational Sciences (NCATS), 2011).
Hit rate of the full screen: of about 330,000 compounds, about 4,200 (1.3%) were called active. Inconclusive means that the source gave no clear call. Such entries were picked first, then a sample of the others. The call rests on the fitted dose curve; in most records, active means well fitted activation curve with a large enough effect; inconclusive means small, poorly fitted or top-dose-only effect; inactive means no such curve, though single readings can be large or run the other way. Where the call is inconclusive, the potency comes from a doubtful curve fit.

Assay: qHTS screen for small molecules that induce genotoxicity in human embryonic kidney (HEK293T) cells expressing luciferase-tagged ELG1; further: nearly all actives have a fitted effect of over 60% in size; on activity change, positive = activation: % of control where 0% means no effect
Conditions: HEK293T ELG1-luciferase reporter, luminescence, 16 h; series mostly up to 46 µM; activity change, positive = activation: at the top concentration
Outline: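 Quantitative HTS format in 1536-well plates. HEK293T ELG1-luciferase reporter cells receive test compound and are incubated 16 hr at 37 °C, 5% CO2; ONE-Glo added, 30 min room temperature, then luminescence read.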
Potency means the concentration at half of the fitted maximal effect; tags describe the fitted curve by direction and shape.

Row | SMILES | activity change, positive = activation | Potency
1 | Cc1c([N+](=O)[O-])c(C(=O)Sc2ccc(Br)cc2)nn1C | inactive: -9.75% | 
2 | O=C(COc1ccc(Cl)cc1Cl)NC(=O)N1CCCCC1 |  | active: 2.91 µM
3 | CSc1ccc(Cn2nnc(C(=O)Nc3ccc(C)c(C)c3)c2N)cc1 |  | inconclusive: 23.1 µM [activator, partial curve, poor fit]
4 | CSCc1ccc(C(=O)OCc2nc3ccccc3s2)o1 |  | inconclusive: 18.3 µM [activator, single point]
5 | COc1ccc(/C=C2\SC(=O)N(CCNC(=O)C3CCN(S(=O)(=O)c4cccs4)CC3)C2=O)cc1 |  | inconclusive: 14.6 µM [activator, partial curve]
6 | Cc1cc(Br)ccc1NC(=O)CNC(=O)CNc1cccc([N+](=O)[O-])c1 | inactive: 0.474% | 
7 | CC1CCN(C(=O)c2cc(-c3ccccc3O)on2)CC1 |  | active: 2.59 µM
8 | O=C(Nc1nc2ccc(F)cc2s1)c1ccc(N2CCCC2=O)cc1 |  | active: 0.461 µM
9 | Cc1csc(NC(=O)c2ccc(Br)s2)n1 |  | inconclusive: 2.91 µM [activator, partial curve]
10 | Cc1occc1-c1nnc(SCC(=O)c2ccc(F)cc2)o1 |  | inconclusive: 23.1 µM [activator, single point]
11 | O=C(N/N=C\c1ccc(Cl)s1)C1COc2ccccc2O1 (configuration not stated) | inactive: 1.15% | 
12 | Cc1cc(/C=C(\C#N)C(=O)NCC2CCCO2)c(C)n1-c1ccc(Cl)cc1 (configuration not stated) | inactive: 0.53% | 
13 | CNC(=S)N/N=C/c1cccc(OCc2ccccc2F)c1 |  | inconclusive: 23.1 µM [activator, partial curve, poor fit]
14 | CCCCCC(=O)Nc1ccc2ccccc2c1 |  | inconclusive: 10.3 µM [activator, partial curve, poor fit]
15 | Cc1ccccc1CNC(=O)C(=O)NCCC1CCCCN1S(=O)(=O)c1cccs1 (configuration not stated) | inactive: -21.8% | 
16 | NC(=O)C1=C[C@H](c2ccccc2)C[C@H](OCc2ccc(CO)cc2)O1 |  | inconclusive: 14.6 µM [activator, partial curve, poor fit]
17 | O=[N+]([O-])c1ccc(-c2ccc(/C=N/Nc3nc(NCc4ccccc4)nc(N4CCOCC4)n3)o2)cc1 |  | inconclusive: 29.1 µM [activator, partial curve, poor fit]
18 | CC1CCCN(C(=O)c2cc3c(=O)n4ccccc4nc3s2)C1 (configuration not stated) |  | active: 16.4 µM
19 | CCN(CC)CCNC(=O)c1ccc(N2CCCCC2)c(NS(=O)(=O)c2ccc(C)cc2)c1 |  | inconclusive: 23.1 µM [activator, single point]
20 | CCOC(=O)Nc1cc(Br)c2c(c1)OCCO2 |  | active: 23.1 µM
21 | O=C(Nc1nc2c(s1)CCCC2)c1ccc2ncsc2c1 |  | inconclusive: 2.91 µM [activator, partial curve]
22 | CC(C)CCN(C(=O)Cc1ccc(Cl)c(Cl)c1)c1c(N)n(Cc2ccccc2)c(=O)[nH]c1=O | inactive: -2.65% | 
23 | CCN(CC)S(=O)(=O)c1ccc(OC)c(NC(=O)c2cccs2)c1 | inactive: -11.8% | 
24 | S=C(NCCc1ccccc1)NCCc1ccccc1 |  | inconclusive: 14.6 µM [activator, partial curve]

Row | SMILES | activity change, positive = activation | Potency
25 | COc1cc(NC(=O)c2c3c(nc4ccccc24)CCC3)cc(OC)c1 |  | inconclusive: 32.6 µM [activator, partial curve, poor fit]
26 | Cc1ccc(C(=O)CN2C(=O)NC3(CCCCCC3)C2=O)c(C)c1 |  | active: 16.4 µM
27 | Oc1cccc(-c2nc3ccccc3s2)c1 |  | active: 1.46 µM
28 | CNc1ccccc(-c2ccc3ccccc3n2)c1=O |  | inconclusive: 5.17 µM [activator, partial curve]
29 | Cn1cnc2cc(NCc3ccccc3Cl)ccc21 |  | inconclusive: 14.6 µM [activator, partial curve, poor fit]
30 | CCCCNC(=O)c1ccc(Cn2c(=S)[nH]c3c([nH]c4ccc(OC)cc43)c2=O)cc1 |  | inconclusive: 20.6 µM [activator, partial curve, poor fit]
31 | COc1ccc(C(=O)/C(C#N)=N/Nc2cccc([N+](=O)[O-])c2)cc1 | inactive: -16.5% | 
32 | CN(C)c1ccc(NC(=O)CCCc2ccccc2)cc1 |  | active: 0.92 µM
33 | Cc1csc(SCC(=O)c2c(N)n(C)c(=O)n(C)c2=O)n1 |  | inconclusive: 16.4 µM [activator, single point]
34 | COc1ccc(C(=O)c2coc3ccc(O)cc23)cc1 |  | inconclusive: 6.51 µM [activator, single point]
35 | Cc1ccc(C(=O)Nc2ccc3c(c2)OCO3)cc1Cl |  | active: 4.61 µM
36 | O=C(Nc1ccc(Cl)cc1)Nc1cccnc1 |  | inconclusive: 13 µM [activator, partial curve, poor fit]
37 | CC(=O)N1CCc2c(sc(NC(=O)C3CCCN3S(=O)(=O)c3cccs3)c2C#N)C1 (configuration not stated) |  | inconclusive: 4.61 µM [activator, partial curve, poor fit]
38 | COc1cccc(/C=C/C(=O)Nc2ccc3c(c2)OCCO3)c1 |  | inconclusive: 2.06 µM [activator, partial curve]
39 | O=C(N/N=C/c1cccs1)c1n[nH]c2c1CCCC2 |  | inconclusive: 0.461 µM [activator, partial curve]
40 | Nc1cc(Cl)nc(N/N=C/c2c(O)ccc3ccccc23)n1 |  | inconclusive: 7.31 µM [activator, partial curve]
41 | CC1CC(=O)c2cnc(Nc3ccccc3)nc2C1 (configuration not stated) |  | active: 5.8 µM
42 | Cc1cccc(C(=O)Nc2cccc(C(=O)N/N=C/c3ccc4c(c3)OCO4)c2)c1 | inactive: 9.13% | 
43 | CCOC(=O)c1cnc2cc(-c3ccc(Br)cc3)nn2c1C |  | inconclusive: 20.6 µM [activator, partial curve, poor fit]
44 | O=C(CCN1C(=O)NC2(CCCC2)C1=O)Nc1ccc(-c2nc3ccccc3s2)cc1 |  | inconclusive: 0.92 µM [activator, partial curve]
45 | C/C(=N/NS(=O)(=O)c1ccc(F)cc1)c1ccc(NC(=O)c2ccc(C)o2)cc1 |  | inconclusive: 20.6 µM [activator, partial curve, poor fit]
46 | CSCC[C@H](NC(=O)Cc1c(C)c2cc3c4c(oc3cc2oc1=O)CCCC4)C(=O)O | inactive: 1.93% | 
47 | COc1ccc(-n2c(SCC(=O)Nc3nc(C)cs3)nnc2-c2ccoc2C)cc1 | inactive: -3.58% | 
48 | O=C(N/N=C/c1cn(-c2ccccc2)nc1-c1cc2ccccc2o1)c1ccccc1Br |  | inconclusive: 1.84 µM [activator, full curve]

Row | SMILES | activity change, positive = activation | Potency
49 | COc1ccc(CCN2CC(C(=O)NCCCn3nc(C)cc3C)CCC2=O)cc1 (configuration not stated) | inactive: 0.0569% | 
50 | CCCCOc1ccc(C(=O)OCC(=O)c2c(N)n(C)c(=O)n(C)c2=O)cc1 | inactive: -2.73% | 
51 | Cc1ccc(S(=O)(=O)N(CC(=O)Nc2ccccc2C(=O)O)c2cccc(Cl)c2C)cc1 | inactive: -7.01% | 
52 | CCC(=O)Nc1ccc(-c2ccc(N3CCC(C)CC3)nn2)cc1 |  | inconclusive: 10.3 µM [activator, partial curve]
53 | C=CC[C@@H](CC(=O)N(CCO)Cc1ccccc1)C(=O)N[C@@H](COC(=O)[C@@H](CC=C)Cc1ccc(F)cc1)Cc1c[nH]c2ccccc12 | inactive: -15.3% | 
54 | CCOc1ccc(OCc2ccc(C(=O)N3CCCC(C)C3)cc2)cc1 (configuration not stated) |  | inconclusive: 2.31 µM [activator, partial curve, poor fit]
55 | Clc1ccc(-n2nnnc2-c2cnc(-c3ccccn3)nc2-c2cccs2)cc1 | inactive: -5.46% | 
56 | CC(=O)Nc1ccc(NC2=CC(=O)c3ccccc3C2=O)cc1 |  | inconclusive: 10.3 µM [activator, partial curve, poor fit]
57 | COc1ccc(-c2ccnc3ncnn23)cc1 |  | inconclusive: 20.6 µM [activator, partial curve, poor fit]
58 | O=C(Nc1cccnc1Cl)c1ccc2c(Cl)c3c(nc2c1)CCC3 |  | active: 2.31 µM
59 | NS(=O)(=O)c1ccc(Nc2nc(-c3ccc(O)cc3O)cs2)cc1 |  | inconclusive: 29.1 µM [activator, single point]
60 | Cc1ccc(N=Nc2c(=O)[nH]n3c(=O)cc(C)[nH]c23)cc1 |  | inconclusive: 18.4 µM [activator, single point]
61 | CN(C(=O)COc1ccc(Cl)cc1Cl)C1(C)CCS(=O)(=O)C1 (configuration not stated) | inactive: 5.04% | 
62 | CC1CCN(CC(=O)Nc2ccccc2Sc2ccccc2)CC1 | inactive: 0.221% | 
63 | O=C(CCS(=O)(=O)c1ccccc1)Nc1ccc2c(c1)OCO2 |  | inconclusive: 16.4 µM [activator, partial curve, poor fit]
64 | c1ccc(C2=Nn3c(nnc3-c3cc(-c4ccccc4)n[nH]3)SC2)cc1 |  | inconclusive: 8.2 µM [activator, partial curve, poor fit]
65 | C/C(=N\NC(N)=S)C1(C)CC2(CC(C)(C)OC2=O)C(=O)O1 (configuration not stated) | inactive: 0.036% | 
66 | NNC(=O)c1ccc(OCC2CC(c3ccc(Cl)cc3)=NO2)cc1 (configuration not stated) |  | inconclusive: 18.3 µM [activator, partial curve, poor fit]
67 | COc1ccc(/C=C/c2cc(C(F)(F)F)on2)cc1 | inactive: 12.9% | 
68 | CCc1nnc(NS(=O)(=O)c2ccc(N=Cc3c(C)[nH]n(-c4ccc(Cl)cc4)c3=O)cc2)s1 | inactive: 3.82% | 
69 | COC(=O)c1c(C)[nH]c(C(=O)OCc2ccc(F)cc2)c1C |  | inconclusive: 23.1 µM [activator, single point]
70 | CN(C)S(=O)(=O)c1ccc(C(=O)Nc2ccn(C)n2)cc1 |  | inconclusive: 4.61 µM [activator, partial curve, poor fit]
71 | COCCNC(=O)c1cc(-c2cccc(OC)c2)on1 |  | inconclusive: 13 µM [activator, partial curve]
72 | Cc1cccc(NCc2nc3ccccc3n2C)c1 |  | active: 11.6 µM
